The other results are listed elsewhere or left out. Rule as the data show it: active = 3.2 or more and inactive = the rest. Most of these values are background signal.
Molecular target: SHP2 C-SH2 domain E139D
Assay: enrichment score (SH2-bound / input frequency) (ratio); bacterial display of known human phosphotyrosine sites (pTyr-Var adds point mutants) read by sequencing; higher = stronger binding; tyrosines were phosphorylated by kinases first
Settings: peptide library: Human pTyr
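Also: displayed peptides selected on beads carrying the immobilized SH2 domain, with library peptides lacking any tyrosine serving as negative controls.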

| Binder | enrichment score |
| --- | --- |
| FLSEETPYSYPTGNH [PAXI_HUMAN_31] | inactive: 1.04 |
| YKPDSPEYKAACKLW [PB1_HUMAN_134] | inactive: 1.3 |
| KLLCDKYYMASPDLE [PDK2_HUMAN_216] | inactive: 1.34 |
| AKMLCEQYYLVAPEL [PDK3_HUMAN_211] | inactive: 1.68 |
| KMLCEQAYLVAPELE [PDK3_HUMAN_212_YA] | inactive: 1.19 |
| ARVITNQYNNPAGLY [PDLI1_HUMAN_144] | inactive: 0.846 |
| ARVITNQYNNPAGLA [PDLI1_HUMAN_144_YA] | inactive: 0.59 |
| DEDCAGNYDNLLSQF [PDPK1_HUMAN_376_YA] | inactive: 0.83 |
| IVINPNAYDNLAIYK [PEAK1_HUMAN_635] | inactive: 1.01 |
| GYRDSGYYWEVPPSE [ARAF_HUMAN_302] | inactive: 0.658 |
| SLSSENPYATIRDLP [PEAR1_HUMAN_925] | inactive: 1.98 |
| YYTTEFLYNLYSSEG [PFKAL_HUMAN_640] | inactive: 2 |
| AATTEFLYNLASSEG [PFKAL_HUMAN_640_YA] | inactive: 0.734 |
| ENRFSGWYDADLSPA [PGAM1_HUMAN_26] | inactive: 0.612 |
| ENRFSCWYDADLSPA [PGAM4_HUMAN_26] | inactive: 1.42 |
| ADESTRSYVILSFEN [PGFRA_HUMAN_720] | inactive: 1.31 |
| SFDLTTPYRIFSFSA [ARAP1_HUMAN_504] | inactive: 0.847 |
| ERKEVSKYSDIQRSL [PGFRA_HUMAN_754] | inactive: 1.31 |

Molecular target: SHP2 C-SH2 domain wild-type
Assay: as above
Settings: peptide library: Human pTyr

| Binder | enrichment score |
| --- | --- |
| FLSEETPYSYPTGNH [PAXI_HUMAN_31] | inactive: 0.571 |
| YKPDSPEYKAACKLW [PB1_HUMAN_134] | inactive: 1.31 |
| KLLCDKYYMASPDLE [PDK2_HUMAN_216] | inactive: 1.34 |
| AKMLCEQYYLVAPEL [PDK3_HUMAN_211] | inactive: 1.39 |
| KMLCEQAYLVAPELE [PDK3_HUMAN_212_YA] | inactive: 1.14 |
| ARVITNQYNNPAGLY [PDLI1_HUMAN_144] | inactive: 0.733 |
| ARVITNQYNNPAGLA [PDLI1_HUMAN_144_YA] | inactive: 0.541 |
| DEDCAGNYDNLLSQF [PDPK1_HUMAN_376_YA] | inactive: 0.765 |
| IVINPNAYDNLAIYK [PEAK1_HUMAN_635] | inactive: 1.29 |
| GYRDSGYYWEVPPSE [ARAF_HUMAN_302] | inactive: 0.563 |
| SLSSENPYATIRDLP [PEAR1_HUMAN_925] | active: 5.32 |
| YYTTEFLYNLYSSEG [PFKAL_HUMAN_640] | inactive: 2.09 |
| AATTEFLYNLASSEG [PFKAL_HUMAN_640_YA] | inactive: 0.572 |
| ENRFSGWYDADLSPA [PGAM1_HUMAN_26] | inactive: 0.56 |
| ENRFSCWYDADLSPA [PGAM4_HUMAN_26] | inactive: 1.49 |
| ADESTRSYVILSFEN [PGFRA_HUMAN_720] | inactive: 1.4 |
| SFDLTTPYRIFSFSA [ARAP1_HUMAN_504] | inactive: 0.709 |
| ERKEVSKYSDIQRSL [PGFRA_HUMAN_754] | inactive: 1.48 |

Molecular target: SHP2 N-SH2 domain L43F
Assay: as above
Settings: peptide library: Human pTyr

| Binder | enrichment score |
| --- | --- |
| FLSEETPYSYPTGNH [PAXI_HUMAN_31] | inactive: 0.673 |
| YKPDSPEYKAACKLW [PB1_HUMAN_134] | inactive: 1.4 |
| KLLCDKYYMASPDLE [PDK2_HUMAN_216] | inactive: 0.815 |
| AKMLCEQYYLVAPEL [PDK3_HUMAN_211] | inactive: 1.47 |
| KMLCEQAYLVAPELE [PDK3_HUMAN_212_YA] | inactive: 1.6 |
| ARVITNQYNNPAGLY [PDLI1_HUMAN_144] | inactive: 0.731 |
| ARVITNQYNNPAGLA [PDLI1_HUMAN_144_YA] | inactive: 0.657 |
| DEDCAGNYDNLLSQF [PDPK1_HUMAN_376_YA] | inactive: 0.737 |
| IVINPNAYDNLAIYK [PEAK1_HUMAN_635] | inactive: 1.19 |
| GYRDSGYYWEVPPSE [ARAF_HUMAN_302] | inactive: 0.592 |
| SLSSENPYATIRDLP [PEAR1_HUMAN_925] | inactive: 0.664 |
| YYTTEFLYNLYSSEG [PFKAL_HUMAN_640] | inactive: 1.87 |
| AATTEFLYNLASSEG [PFKAL_HUMAN_640_YA] | inactive: 0.704 |
| ENRFSGWYDADLSPA [PGAM1_HUMAN_26] | inactive: 0.534 |
| ENRFSCWYDADLSPA [PGAM4_HUMAN_26] | inactive: 1.17 |
| ADESTRSYVILSFEN [PGFRA_HUMAN_720] | active: 7.53 |
| SFDLTTPYRIFSFSA [ARAP1_HUMAN_504] | inactive: 0.901 |
| ERKEVSKYSDIQRSL [PGFRA_HUMAN_754] | inactive: 0.905 |

Molecular target: SHP2 N-SH2 domain T42A
Assay: as above
Settings: peptide library: Human pTyr

| Binder | enrichment score |
| --- | --- |
| FLSEETPYSYPTGNH [PAXI_HUMAN_31] | inactive: 0.537 |
| YKPDSPEYKAACKLW [PB1_HUMAN_134] | inactive: 1.05 |
| KLLCDKYYMASPDLE [PDK2_HUMAN_216] | inactive: 0.968 |
| AKMLCEQYYLVAPEL [PDK3_HUMAN_211] | inactive: 1.57 |
| KMLCEQAYLVAPELE [PDK3_HUMAN_212_YA] | inactive: 1.18 |
| ARVITNQYNNPAGLY [PDLI1_HUMAN_144] | inactive: 0.797 |
| ARVITNQYNNPAGLA [PDLI1_HUMAN_144_YA] | inactive: 0.759 |
| DEDCAGNYDNLLSQF [PDPK1_HUMAN_376_YA] | inactive: 0.729 |
| IVINPNAYDNLAIYK [PEAK1_HUMAN_635] | inactive: 0.896 |
| GYRDSGYYWEVPPSE [ARAF_HUMAN_302] | inactive: 0.693 |
| SLSSENPYATIRDLP [PEAR1_HUMAN_925] | inactive: 0.717 |
| YYTTEFLYNLYSSEG [PFKAL_HUMAN_640] | inactive: 1.79 |
| AATTEFLYNLASSEG [PFKAL_HUMAN_640_YA] | inactive: 0.86 |
| ENRFSGWYDADLSPA [PGAM1_HUMAN_26] | inactive: 0.577 |
| ENRFSCWYDADLSPA [PGAM4_HUMAN_26] | inactive: 1.48 |
| ADESTRSYVILSFEN [PGFRA_HUMAN_720] | active: 7 |
| SFDLTTPYRIFSFSA [ARAP1_HUMAN_504] | inactive: 0.664 |
| ERKEVSKYSDIQRSL [PGFRA_HUMAN_754] | inactive: 0.842 |

Molecular target: SHP2 N-SH2 domain T52S
Assay: as above
Settings: peptide library: Human pTyr

| Binder | enrichment score |
| --- | --- |
| FLSEETPYSYPTGNH [PAXI_HUMAN_31] | inactive: 0.577 |
| YKPDSPEYKAACKLW [PB1_HUMAN_134] | inactive: 1.4 |
| KLLCDKYYMASPDLE [PDK2_HUMAN_216] | inactive: 1.32 |
| AKMLCEQYYLVAPEL [PDK3_HUMAN_211] | inactive: 1.61 |
| KMLCEQAYLVAPELE [PDK3_HUMAN_212_YA] | inactive: 1.26 |
| ARVITNQYNNPAGLY [PDLI1_HUMAN_144] | inactive: 0.817 |
| ARVITNQYNNPAGLA [PDLI1_HUMAN_144_YA] | inactive: 0.904 |
| DEDCAGNYDNLLSQF [PDPK1_HUMAN_376_YA] | inactive: 0.991 |
| IVINPNAYDNLAIYK [PEAK1_HUMAN_635] | inactive: 0.928 |
| GYRDSGYYWEVPPSE [ARAF_HUMAN_302] | inactive: 0.668 |
| SLSSENPYATIRDLP [PEAR1_HUMAN_925] | inactive: 0.592 |
| YYTTEFLYNLYSSEG [PFKAL_HUMAN_640] | inactive: 2.17 |
| AATTEFLYNLASSEG [PFKAL_HUMAN_640_YA] | inactive: 0.774 |
| ENRFSGWYDADLSPA [PGAM1_HUMAN_26] | inactive: 0.561 |
| ENRFSCWYDADLSPA [PGAM4_HUMAN_26] | inactive: 1.67 |
| ADESTRSYVILSFEN [PGFRA_HUMAN_720] | active: 4.71 |
| SFDLTTPYRIFSFSA [ARAP1_HUMAN_504] | inactive: 0.934 |
| ERKEVSKYSDIQRSL [PGFRA_HUMAN_754] | inactive: 0.956 |

Molecular target: SHP2 N-SH2 domain wild-type
Assay: as above
Settings: peptide library: Human pTyr

| Binder | enrichment score |
| --- | --- |
| FLSEETPYSYPTGNH [PAXI_HUMAN_31] | inactive: 0.671 |
| YKPDSPEYKAACKLW [PB1_HUMAN_134] | inactive: 1.41 |
| KLLCDKYYMASPDLE [PDK2_HUMAN_216] | inactive: 1.42 |
| AKMLCEQYYLVAPEL [PDK3_HUMAN_211] | inactive: 1.78 |
| KMLCEQAYLVAPELE [PDK3_HUMAN_212_YA] | inactive: 1.14 |
| ARVITNQYNNPAGLY [PDLI1_HUMAN_144] | inactive: 0.758 |
| ARVITNQYNNPAGLA [PDLI1_HUMAN_144_YA] | inactive: 0.525 |
| DEDCAGNYDNLLSQF [PDPK1_HUMAN_376_YA] | inactive: 0.726 |
| IVINPNAYDNLAIYK [PEAK1_HUMAN_635] | inactive: 0.956 |
| GYRDSGYYWEVPPSE [ARAF_HUMAN_302] | inactive: 0.667 |
| SLSSENPYATIRDLP [PEAR1_HUMAN_925] | inactive: 0.599 |
| YYTTEFLYNLYSSEG [PFKAL_HUMAN_640] | inactive: 2.48 |
| AATTEFLYNLASSEG [PFKAL_HUMAN_640_YA] | inactive: 0.737 |
| ENRFSGWYDADLSPA [PGAM1_HUMAN_26] | inactive: 0.604 |
| ENRFSCWYDADLSPA [PGAM4_HUMAN_26] | inactive: 1.72 |
| ADESTRSYVILSFEN [PGFRA_HUMAN_720] | inactive: 2.5 |
| SFDLTTPYRIFSFSA [ARAP1_HUMAN_504] | inactive: 1 |
| ERKEVSKYSDIQRSL [PGFRA_HUMAN_754] | inactive: 1.1 |

Reference: the supplement of paper PMC10369915
